Results from PubChem BioAssay AID485297 (National Center for Advancing Translational Sciences (NCATS), 2010).
Among all 320,000 compounds or so, about 9,100 (2.8%) were called active. Inconclusive results, whose numbers are uncertain, are shown with a selection of clear calls. Calls follow the shape of the dose curve; as a rule, active = well fitted activation curve with a large enough effect; inconclusive = small, poorly fitted or top-dose-only effect; inactive = no such curve, though single readings can be large or run the other way. Potencies of inconclusive entries are doubtful fits and often do not repeat.

Experiment: qHTS Assay for Rab9 Promoter Activators; also: nearly all actives have a fitted effect of over 60% in size; as to activation, negative = inhibition: % of control where 0% means no effect
Settings: Huh7 Rab9 promoter-luciferase reporter, luminescence, 24 h; series mostly up to 9.22 µM; activation, negative = inhibition: at the top concentration
Summary of the method: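 Stable Rab9-luc Huh7, 1500 cells/well, 2 h settle; cmpd in DMSO, 24 h, 37 °C/5% CO2; luciferase reagent 10 min RT; luminescence.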
Potency is read from the fitted curve at half-maximal effect; tags tell the direction and shape of the fitted curve.

activation, negative = inhibition, inactive:
CCS(=O)(=O)c1ccc(C(=O)Nc2cccc(Cl)c2)c(Cl)c1Cl -5.92%
C=CCn1c(SCC(N)=O)nc2sc3c(c2c1=O)CCC3 -2.43%
O=C(Nc1ccccc1Cl)C1CC(=O)n2c(nc3ccccc32)N1 (stereo not given) -7.32%
CC(C)COc1cccc(-c2cc(C(=O)Nc3ccon3)c3ccccc3n2)c1 -0.245%
O=C(N/N=C/c1cccc(OC2CSC2)c1)c1ccccc1O 11.5%
CCCCCC(=O)c1c(C)[nH]c(C(=O)OCC)c1C 6.09%
COCCNC(=O)NC(=O)CN1CCN(C(c2ccccc2)c2ccccc2)CC1 -5.1%
O=C(CN1CCOCC1)NCCc1ccccc1 4.02%
CC/C(=N\Nc1ccc([N+](=O)[O-])cc1[N+](=O)[O-])c1ccc(O)cc1 -2.35%
Cc1ccc(/C=N/NC(=O)c2cccnc2)s1 12.2%
O=C(/C=C/c1cccs1)Nc1ccncc1 26.5%
CCc1nnc(NC(=O)COc2ccc3c(c2)OCO3)s1 20.8%
COc1cc(/C=C2/C(=O)NN(c3ccc(Cl)cc3)C2=O)ccc1OC(=O)c1ccco1 -5.76%
CCOC(=O)C1=C(CS(=O)(=O)c2ccccc2)NC(=O)NC1c1cc(OC)c(O)c(OC)c1 (stereo not given) -2.21%

Potency, inconclusive:
COc1ccc2c(c1)CC/C2=N\OC(=O)c1ccccc1C 3.16 µM [activator, partial curve]
COc1ccc(-c2ncc3ccccn23)cc1OC 2 µM [activator, partial curve]
Cc1ccccc1-n1c(=O)c2ccccc2n2c(=O)[nH]nc12 1 µM [activator, single point]
CCN(CC)c1ccc2cc(-c3nnc(-c4ccncc4)o3)c(=O)oc2c1 2.82 µM [activator, partial curve]
CN1CCOc2ccc(S(=O)(=O)N3CCN(S(=O)(=O)c4c(F)cccc4F)CC3)cc21 6.31 µM [activator, single point]
N#Cc1cnc(Nc2ccc(F)cc2)nc1N 3.16 µM [activator, partial curve]
Cc1ccc(C)c(NC(=O)c2cc(-c3ccccc3O)n[nH]2)c1 3.55 µM [activator, partial curve, poor fit]
Cc1nc2cc(NCc3cccs3)ccc2n1C 2.51 µM [activator, partial curve]
COc1ccc(/C=N/NC(=O)c2ccoc2C)cc1OC 2.51 µM [activator, partial curve]
COc1ccc(OCC(=O)Nc2cccc(NC(=O)COc3ccc(OC)cc3)n2)cc1 1.58 µM [activator, partial curve]
CCCOc1ncnc2c1sc1nc3c(cc12)COC(C)(C)C3 3.55 µM [activator, single point]
CC(C)(C)c1ccc(OCC(O)CSc2ncn[nH]2)cc1 (stereo not given) 0.316 µM [activator, partial curve]
O=C(c1ccco1)N1CCCC(Nc2ccc3c(c2)OCCO3)C1 (stereo not given) 3.55 µM [activator, partial curve]
COC(=O)c1sc(NC(=O)COc2ccccc2C)nc1C 3.16 µM [activator, single point]
COc1ccccc1NC(=O)c1cnc2n(c1=O)CCS2 1.78 µM [activator, partial curve]
Cn1c(-c2ccc(-c3ccccc3)cc2)c[nH]c1=S 4.47 µM [activator, partial curve]
COCCN(CCOC)S(=O)(=O)c1ccc(C(=O)Nc2sc3c(c2C(N)=O)CCCCC3)cc1 3.98 µM [activator, single point]
O=C(O)CCC(=O)Nc1ccccc1C(=O)NCCc1ccccc1 5.62 µM [activator, single point]
Cn1nc(OC(=O)Nc2ccc(F)cc2)cc1C(F)(F)F 5.62 µM [activator, single point]
O=C(c1cccc(Oc2ccc([N+](=O)[O-])cc2)c1)N1CCOCC1 3.16 µM [activator, partial curve]
O=C(NNC(=O)c1ccccc1F)c1cccs1 1.58 µM [activator, partial curve]
Cn1nnnc1SCC(=O)Nc1nc2ccccc2s1 3.55 µM [activator, partial curve]
CC(C)(C)N(Cc1ccccc1)C(=O)CN1C(=O)c2ccccc2C1=O 3.55 µM [activator, single point]
O=C(Nc1ccc(F)c(F)c1)c1ccco1 5.62 µM [activator, single point]
CC(C)(C)c1csc(N/N=C/c2ccc(O)cc2)n1 6.31 µM [activator, single point]
CC(C)c1ccc(NC(=S)NC2CCCCCC2)cc1 2.51 µM [activator, partial curve]
Cc1cc(NCCCn2ccnc2)n2nc(C)c(-c3ccccc3)c2n1 2.82 µM [activator, partial curve]
Cc1ccc(/C=N/n2cc(-c3ccccc3)[nH]c2=S)s1 2 µM [activator, partial curve]
Cc1csc(NC(=O)c2ccccc2O)n1 3.16 µM [activator, partial curve]

Potency, active:
COc1ccc2sc(NC(=O)c3ccco3)nc2c1 0.355 µM
S=C(Nc1ccc(Cl)cc1)c1nc2ccccc2[nH]1 1.78 µM
COc1ccc2c(c1OC)C(=O)c1ccccc1C2=O 3.98 µM
Cc1cc(C)nc(SCc2csc(-c3ccccc3)n2)n1 1.41 µM
Cc1ccc(N=Cc2sc(O)c3ccccc23)cc1 1.26 µM
O=C(Cn1cnc2c(cnn2-c2ccccc2)c1=O)OCc1ccccc1 3.98 µM
O=C(Nc1ccccc1)OCCOc1ccccc1 0.891 µM
